The results in this text go back to ChEMBL document CHEMBL4888484, “Replenishing the malaria drug discovery pipeline: Screening and hit evaluation of the MMV Hit Generation Library 1 (HGL1) against asexual blood stage Plasmodium falciparum ,using a nano luciferase reporter read-out” (2022).

The whole screen tested about 150,000 compounds, of which about 540 (0.36%) showed an effect of 50% or more. The list shows a part of the results.

The experiment relates to Plasmodium falciparum. In words: Primary screen in NF54 nanoGlo assay, in single point, at 2uM, 72h; a lower Z score goes with more inhibition. Type of experiment: functional, Erythrocyte. Particulars: timepoint 72 hour.
What is called % Inhibition is the change of the read-out against control, counted positive when it falls. Regarding `O=C(N[C@@H]1[C@@H]2CCO[C@@H]2[C@@H]1C1CCCC1)c1cnc(C2CC2)[nH]c1=O`, the “% Inhibition” value is on record as -4% and the Z score is reported as 0.67.
For `COC1CCN(C(=O)C2CC3CCCC(C2)C3=O)CC1` (configuration not stated), the “% Inhibition” value is on record as -3% and the Z score is 0.45.
In the same order, the values of `COC(=O)C1(CS(=O)(=O)N2CC[C@H](N3CCC3)C2)CCC1` are -10% and 0.9.
In the same order, the values of `O=C(CN1C(=O)CCC1=O)Nc1sccc1-c1nc2ccccc2s1` are -3% and 0.46.
In the same order, the values of `CCc1cc2c(N3CCC(c4cc(N)[nH]n4)CC3)nc(C)nc2s1` are -1% and 0.14.
`CCc1ccc([C@@H]2CCCN2Cc2c(C)nnn2CC)o1`: the “% Inhibition” value is listed as -4% and the Z score turned out to be 0.5.
`Cc1ccc(-c2ccnn2C)cc1NC(=O)c1cscn1`: the “% Inhibition” value was determined as 32% and the Z score was -4.65.
In the same order, the values of `COc1ccc([C@@]2(C(=O)NCc3ccc4nsnc4c3)CC2(C)C)cc1` are -1% and 0.2.
In the same order, the values of `NC(=O)C(NC(=O)Cc1ccccc1F)C(N)=O` are -12% and 1.1.
Consider `CC(C)Cc1ccccc1CNC(=O)N[C@H]1CCC(=O)N(C)C1`, for which the “% Inhibition” value worked out at 4% and the Z score is listed as -0.61.
For the molecule `CCOC(=O)[C@@H]1CCCN1S(=O)(=O)N1CCN(c2cccc(Cl)c2)CC1`, the “% Inhibition” value was -17% and the Z score turned out to be 2.61.
For the molecule `Cc1nnc(N2CC(C#N)C3(C2)C(=O)Nc2ccccc23)c(C#N)c1C` (configuration not stated), the “% Inhibition” value is given as -6% and the Z score was found to be 0.61.
In the same order, the values of `CCCc1cc(C(=O)NCc2nc(-c3ccccc3NC(=O)[C@@H]3CCCO3)oc2C)n(C)n1` are -4% and 0.74.
In the same order, the values of `COc1nc(NCC2CCN(C(C)=O)CC2)ncc1F` are -6% and 1.15.
In the same order, the values of `O=C(CCc1ccon1)NCc1cc(C2CC2)ccc1F` are -12% and 2.16.
Consider `CCc1ncnc(O[C@H]2CCN(S(=O)(=O)CCC(F)(F)F)C2)c1F`, for which the “% Inhibition” value is reported as 6% and the Z score is on record as -1.01.
In the same order, the values of `Cc1cc(C)c(C(=O)N2CCC[C@H](N(C)Cc3ccccc3)C2)o1` are -11% and 1.62.
Turning to `C#CCCC(=O)NCCCC1CCCCC1`, the “% Inhibition” value is listed as -24% and the Z score was 2.81.
In the same order, the values of `COc1cccc(C(=O)N2CCOc3ccc(CN4CCCC4)cc3C2)c1` are -6% and 1.12.
Regarding `COc1cccc(-c2n[nH]c(CC(C)C)c2NC(=O)c2ccccc2Cl)c1`, the “% Inhibition” value is given as -11% and the Z score is on record as 2.04.
In the same order, the values of `Cc1ccc(-n2nc(-c3ccccc3)nc2C[C@H]2CCS(=O)(=O)C2)cc1C` are 5% and -0.73.
In the same order, the values of `CCC[C@H](NC(=O)Nc1ccc(OC)c(C(=O)N(C)C)c1)c1nccn1C` are -11% and 1.64.
In the same order, the values of `Cc1cccc(-c2nnc3c4ccc(Cl)cc4nc(N(C)Cc4ccco4)n23)c1` are 40% and -3.9.
Consider `FC(F)(F)C1CCCC(c2nnc(-c3cccnc3)o2)C1` (configuration not stated), for which the “% Inhibition” value is -8% and the Z score is on record as 1.28.
In the same order, the values of `CC(=O)N[C@H]1CN(C(=O)CCCS(N)(=O)=O)C[C@@H]1c1ccc(C)cc1` are -4% and 0.54.
In the same order, the values of `COc1ccc(CC(=O)NCc2cc3n(n2)CCN(S(C)(=O)=O)C3)cc1` are -13% and 1.89.
For the molecule `Cc1noc(C)c1S(=O)(=O)Nc1ccc(F)cn1`, the “% Inhibition” value is listed as -9% and the Z score was determined as 0.91.
In the same order, the values of `O=C(CCNC(=O)c1cncc(Br)c1)Nc1cccnc1` are -4% and 0.46.
In the same order, the values of `CCNC(=O)CNc1nc(C(F)(F)F)cs1` are -5% and 0.6.
In the same order, the values of `CCc1cc(N2CC(n3nc(C)cc3C)C2)n2nccc2n1` are -7% and 1.3.
As for `Cc1ccc2nc(-c3ccc(N4C(=O)C[C@H](N5CCCCCC5)C4=O)cc3)sc2c1`, the “% Inhibition” value is -9% and the Z score came out at 1.68.
With `COc1cnc(NC(=O)NC2CCOC2C2CC2)nc1` (configuration not stated), the “% Inhibition” value is recorded as 21% and the Z score is -2.5.
In the same order, the values of `CN(C)c1ccc(NC(=O)COc2ccc3ccccc3c2)cc1` are -5% and 0.73.
In the same order, the values of `CCCCn1nc(Cc2cccnc2)nc1[C@H](C)n1nc(C)cc1C` are -3% and 0.43.
In the same order, the values of `O=C(NCc1cncc(-c2ccoc2)c1)c1ccccc1Br` are 17% and -2.2.
For the molecule `COc1ccc(-c2cnc3ncnn3c2N2CCN(C)CC2)cc1`, the “% Inhibition” value is -3% and the Z score was determined as 0.55.
In the same order, the values of `CC1=C(c2ccc(F)cc2)S(=O)(=O)N=C1N1CCN(c2ccccc2F)CC1` are -6% and 0.82.
In the same order, the values of `CCc1ccc([C@@H]2CN(C(=O)c3ccnc(C#N)c3)CCO2)cc1` are 15% and -1.92.
In the same order, the values of `O=S(=O)(NCc1ccc(N2CCCC2)cc1)c1cccs1` are -2% and 0.45.
Turning to `O=C(O)c1cc2cc(-c3ccc(Cl)cc3)ccc2[nH]c1=O`, the “% Inhibition” value is on record as -10% and the Z score stood at 1.29.
In the same order, the values of `Cc1nc(-c2cc(S(=O)(=O)NCc3cccc(C(F)(F)F)c3)c(C)s2)cs1` are 16% and -1.85.
In the same order, the values of `Cc1ncsc1CNC[C@H]1CCCn2cc(C(C)(C)C)nc21` are -10% and 1.46.
In the same order, the values of `C[C@H](OC(=O)Cc1ccc(F)cc1F)c1ccccn1` are -10% and 0.96.
Regarding `O=C(NCc1ccc2c(c1)OCO2)C1CC(c2ccccc2)CN(Cc2ccccc2)C1` (configuration not stated), the “% Inhibition” value stood at 6% and the Z score is given as -0.73.
In the same order, the values of `COc1csc(C(=O)Nc2ccc(N(C)C)cn2)c1` are -13% and 1.93.
In the same order, the values of `CCc1nc(CNc2cc(C(=O)N3CCOCC3)ccc2C)cs1` are 4% and -0.72.
In the same order, the values of `COC[C@H](C)NC(=O)CCc1ccccc1Cl` are -6% and 0.93.
Turning to `C[C@H](OC1CCCCCC1)C(=O)NS(=O)(=O)c1cccnc1`, the “% Inhibition” value is on record as -17% and the Z score is 3.32.
In the same order, the values of `CCOc1ncc(NC(=O)c2cccc(OC)c2OC)c(OCC)n1` are -13% and 2.48.
In the case of `Cc1nc([C@H]2CCOC2)cc(N2CCN(Cc3ccccc3F)C(=O)C2)n1`, the “% Inhibition” value was -13% and the Z score stood at 1.64.
In the same order, the values of `OC1CCCN(Cc2cc(F)cc3c2OC(c2ccsc2)OC3)C1` (configuration not stated) are -4% and 0.34.
In the same order, the values of `C=C(C)CN(CC)c1nn2cc(C(C)(C)C)nc2s1` are -3% and 0.44.
As for `COc1nc(-c2cccc(C(F)(F)F)c2)n(-c2cccc(NC(=O)c3ccc(C(F)(F)F)cc3)c2)n1`, the “% Inhibition” value is listed as -5% and the Z score came out at 0.64.
In the same order, the values of `CCNC(=O)N1C[C@H](c2nc(-c3ccc(F)cc3)no2)C2(CCOCC2)C1` are -7% and 1.26.
In the same order, the values of `CC1(C)C[C@H](O)c2c(OCc3nnc(C4CC4)o3)cccc2O1` are -8% and 1.21.
As to `CCCCOc1ccc(-c2cc3c(N4CCN(c5ccccc5C)CC4)nccn3n2)cc1`, the “% Inhibition” value is listed as -7% and the Z score was 1.07.
In the same order, the values of `O=C1CCCN1CC[C@H]1CCCCN1C(=O)Nc1cc(F)ccc1F` are -15% and 2.02.
In the same order, the values of `Cn1cc(Cl)cc1C(=O)Nc1ccccc1Oc1ccccc1` are -5% and 0.61.
Take `Cc1cccc(CNC(=O)c2cc3n(n2)CCCC3)c1`: the “% Inhibition” value was -14% and the Z score is listed as 1.54.
In the case of `O=C(Nc1cc(Oc2ccc(F)cc2)cc(Oc2ccc(F)cc2)c1)c1cc2nc(-c3ccccc3)cc(C(F)(F)F)n2n1`, the “% Inhibition” value was -2% and the Z score is reported as 0.27.
In the same order, the values of `CCNC(=O)c1ccc(OC(C)C)cc1` are -35% and 4.07.
In the same order, the values of `O=C(Cn1cnnn1)N1CC2C3CCC(C3)C2C1` (configuration not stated) are -2% and 0.21.
In the same order, the values of `Cc1cc(C)cc(Nc2cc(C)n3c(=O)n(C)nc3n2)c1` are -17% and 1.86.
Regarding `COc1cnc(NC(=O)N2CCC(N3CCCC3)C2C)s1` (configuration not stated), the “% Inhibition” value is listed as -8% and the Z score was determined as 1.3.
In the same order, the values of `COc1ccc(C(=O)N2CCc3ccccc3[C@H]2C)cc1F` are 23% and -2.21.
In the same order, the values of `COc1cccc(C(=O)N2CCC[C@@]3(CCNC3)C2)c1O` are -19% and 1.74.
In the same order, the values of `FC(F)c1coc(-c2ccc(OC[C@H]3CCCCO3)cc2)n1` are -11% and 1.84.
With `c1cncc(-c2n[nH]cc2CNCc2nccs2)c1`, the “% Inhibition” value is listed as 7% and the Z score is -0.87.
In the same order, the values of `Cc1nc(N2CCC3(NC(=O)CC4CCOCC4)CCCC23)c2cnn(C)c2n1` (configuration not stated) are 16% and -2.05.
In the same order, the values of `CCN(C[C@H](C)C#N)S(=O)(=O)c1ccc(C)cc1Br` are -10% and 1.1.
In the same order, the values of `CCOC(=O)Cc1nc(CNc2ccccc2)n[nH]1` are -10% and 1.68.
Consider `COc1ccccc1CNC(=O)c1snc(-c2ccncc2)c1N`, for which the “% Inhibition” value is on record as -20% and the Z score amounted to 1.92.
In the same order, the values of `CCN(CC)C(=O)N1CCCN(C(=O)COc2ccccc2)CC1` are -5% and 0.62.
In the same order, the values of `c1ccc2c(c1)OCCN2Cc1noc(C2CC2)n1` are -5% and 0.86.
In the same order, the values of `CCc1ccc(-c2c(C)sc(NC(=O)c3c(C)noc3C)c2C(N)=O)cc1` are -7% and 1.05.
In the case of `CCOC(=O)C[C@](C)(NC(=O)c1ccn(C)c1C)C(C)C`, the “% Inhibition” value was -10% and the Z score is 0.86.
In the same order, the values of `CCc1cc(Br)c(C)nc1N` are -7% and 0.95.
In the same order, the values of `CCN(CC)c1nc(-c2cccc(Cl)c2)nc2ncccc12` are -12% and 2.37.
In the same order, the values of `CN1CC(=O)N=C1NC(=O)Nc1cccc(Cl)c1` [FENOBAM ANHYDROUS] are -3% and 0.5.
With `COC[C@@H](O)CN(Cc1c(-c2ccccc2)nn(C)c1Oc1cccc(OC)c1)C(C)C`, the “% Inhibition” value was 14% and the Z score was -1.8.
In the same order, the values of `CC12C(=O)N(c3cccc4ccccc34)C(=O)C1C1c3ccccc3C2c2ccccc21` (configuration not stated) are -2% and 0.33.
In the same order, the values of `Cc1cn2nnc(C(=O)Nc3ccccc3CCc3ccccn3)c2c(=O)[nH]1` are -2% and 0.33.
In the same order, the values of `O=C(c1ncccc1O)N1CCC[C@@]2(CO)CN(c3cnccn3)CC[C@H]12` are -8% and 1.27.
Consider `Cc1csc(C(=O)NC[C@]2(O)CCOC2)c1`, for which the “% Inhibition” value was -6% and the Z score is given as 1.17.
In the same order, the values of `O=C(CCCc1c[nH]c2ccccc12)N1CCc2ccccc2C1` are -6% and 0.54.
`CC1CN(C(=O)c2c(F)ccc(O)c2F)CC(C)[S+]1[O-]` (configuration not stated): the “% Inhibition” value was found to be 4% and the Z score is on record as -0.61.
